Some of the results follow. Rule as the data show it: active = 3.2 or more and inactive = the rest. The signal is at background level for most entries.
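Also: displayed peptides selected on beads carrying the immobilized SH2 domain, with library peptides lacking any tyrosine serving as negative controls.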

For the first test, the target named is SHP2 C-SH2 domain E139D. The test is described as follows: enrichment score (SH2-bound / input frequency) (ratio); bacterial display of known human phosphotyrosine sites (pTyr-Var adds point mutants) read by sequencing; higher = stronger binding; tyrosines were phosphorylated by kinases first. To be noted: peptide library: pTyr-Var.
Consider LQPNNCQFCGG [CSF1R_Y969_Y969C], for which the enrichment score was inactive: 0.595.
Still for that read-out and setting: next, LQPNNYQFCGG [CSF1R_Y969]: inactive: 0.735; LENSTYQFIHV [CRB1_Y760_R764H_YF]: inactive: 0.975; MIRSTYALGGL [CPS1_Y590_A589T]: inactive: 1.
As to TLNHQYDYTFH [CSNK1A1_Y292_D297H], the enrichment score is inactive: 0.938.
Still for that read-out and setting: in the case of FAKTQYPDIYA [CRX_Y63_V66I] it was inactive: 1.35.
On the same count and under the same terms, in the case of LENSTYQYIHV [CRB1_Y760_R764H] it was inactive: 0.764; in that of FSGKAYADEER [CRIM1_Y826], inactive: 0.674; in that of IEKLPYIDKWF [CPS1_Y872_T871P], inactive: 1.02.
Turning to LNPDGYEKAYE [CPXM2_Y427], the enrichment score is inactive: 0.668.
On the same count and under the same terms, next, LNPDGYKKAYE [CPXM2_Y427_E428K]: inactive: 0.783; MIRSAYALGGL [CPS1_Y590]: inactive: 0.498; LFQAKYQIRYR [CRLF1_Y272]: inactive: 1.37.
Same read-out and setting: next, NCLRVYVAGRF [CRB1_Y711_E710V]: inactive: 1.04.
The same measure, in the same setting: next, LNPDGYEKAFE [CPXM2_Y427_YF]: inactive: 0.704; FAKTQYPDVFA [CRX_Y63_YF]: inactive: 0.746; RRDRDYTNLPS [CSF1R_Y923_E920D]: inactive: 0.339.
For LENSTYQFICV [CRB1_Y760_R764C_YF], the enrichment score was inactive: 0.779.
Still for that read-out and setting: next, MIHSAYALGGL [CPS1_Y590_R587H]: inactive: 0.915.

In a further test the target is SHP2 C-SH2 domain wild-type. The description is as above. As to conditions: peptide library: pTyr-Var.
In the case of LQPNNCQFCGG [CSF1R_Y969_Y969C], the enrichment score was inactive: 0.894.
On to LQPNNYQFCGG [CSF1R_Y969], for which the enrichment score is inactive: 0.802.
The same measure, in the same setting: in the case of LENSTYQFIHV [CRB1_Y760_R764H_YF] it was inactive: 0.77; in that of MIRSTYALGGL [CPS1_Y590_A589T], inactive: 0.712.
On the same count and under the same terms, in the case of TLNHQYDYTFH [CSNK1A1_Y292_D297H] it was inactive: 0.823; in that of FAKTQYPDIYA [CRX_Y63_V66I], inactive: 1.14; in that of LENSTYQYIHV [CRB1_Y760_R764H], inactive: 1.12.
Same read-out and setting: in the case of FSGKAYADEER [CRIM1_Y826] it was inactive: 0.615.
As to IEKLPYIDKWF [CPS1_Y872_T871P], the enrichment score is inactive: 1.05.
Same read-out and setting: in the case of LNPDGYEKAYE [CPXM2_Y427] it was inactive: 0.701; in that of LNPDGYKKAYE [CPXM2_Y427_E428K], inactive: 0.588; in that of MIRSAYALGGL [CPS1_Y590], inactive: 0.495.
As to LFQAKYQIRYR [CRLF1_Y272], the enrichment score was inactive: 1.28.
The same measure, in the same setting: in the case of NCLRVYVAGRF [CRB1_Y711_E710V] it was inactive: 0.656; in that of LNPDGYEKAFE [CPXM2_Y427_YF], inactive: 0.794; in that of FAKTQYPDVFA [CRX_Y63_YF], inactive: 0.654.
On the same count and under the same terms, next, RRDRDYTNLPS [CSF1R_Y923_E920D]: inactive: 0.303; LENSTYQFICV [CRB1_Y760_R764C_YF]: inactive: 1.05.
Same read-out and setting: in the case of MIHSAYALGGL [CPS1_Y590_R587H] it was inactive: 0.823.

A further test addresses SHP2 N-SH2 domain L43F. Described as above. As to conditions: peptide library: pTyr-Var.
As to LQPNNCQFCGG [CSF1R_Y969_Y969C], the enrichment score is inactive: 1.03.
Still for that read-out and setting: next, LQPNNYQFCGG [CSF1R_Y969]: inactive: 0.777; LENSTYQFIHV [CRB1_Y760_R764H_YF]: inactive: 1.22.
On the same count and under the same terms, next, MIRSTYALGGL [CPS1_Y590_A589T]: inactive: 0.843; TLNHQYDYTFH [CSNK1A1_Y292_D297H]: inactive: 0.774.
Still for that read-out and setting: next, FAKTQYPDIYA [CRX_Y63_V66I]: inactive: 0.891; LENSTYQYIHV [CRB1_Y760_R764H]: inactive: 0.871; FSGKAYADEER [CRIM1_Y826]: inactive: 0.664.
Take IEKLPYIDKWF [CPS1_Y872_T871P]: the enrichment score was inactive: 1.17.
For LNPDGYEKAYE [CPXM2_Y427], the enrichment score is inactive: 0.577.
On the same count and under the same terms, in the case of LNPDGYKKAYE [CPXM2_Y427_E428K] it was inactive: 0.395; in that of MIRSAYALGGL [CPS1_Y590], inactive: 0.575; in that of LFQAKYQIRYR [CRLF1_Y272], inactive: 1.13.
Same read-out and setting: in the case of NCLRVYVAGRF [CRB1_Y711_E710V] it was inactive: 0.421; in that of LNPDGYEKAFE [CPXM2_Y427_YF], inactive: 0.557.
With FAKTQYPDVFA [CRX_Y63_YF], the enrichment score was inactive: 0.953.
On the same count and under the same terms, next, RRDRDYTNLPS [CSF1R_Y923_E920D]: inactive: 0.308; LENSTYQFICV [CRB1_Y760_R764C_YF]: inactive: 1; MIHSAYALGGL [CPS1_Y590_R587H]: inactive: 0.819.

Another test deals with SHP2 N-SH2 domain T42A. The description is as above. To be noted: peptide library: pTyr-Var.
On to LQPNNCQFCGG [CSF1R_Y969_Y969C], for which the enrichment score was inactive: 0.828.
On the same count and under the same terms, next, LQPNNYQFCGG [CSF1R_Y969]: inactive: 0.778; LENSTYQFIHV [CRB1_Y760_R764H_YF]: inactive: 0.835.
On the same count and under the same terms, next, MIRSTYALGGL [CPS1_Y590_A589T]: inactive: 0.69; TLNHQYDYTFH [CSNK1A1_Y292_D297H]: inactive: 0.76; FAKTQYPDIYA [CRX_Y63_V66I]: inactive: 1.08.
On to LENSTYQYIHV [CRB1_Y760_R764H], for which the enrichment score is active: 3.33.
FSGKAYADEER [CRIM1_Y826]: the enrichment score is inactive: 0.612.
Turning to IEKLPYIDKWF [CPS1_Y872_T871P], the enrichment score is inactive: 0.964.
Still for that read-out and setting: in the case of LNPDGYEKAYE [CPXM2_Y427] it was inactive: 0.415; in that of LNPDGYKKAYE [CPXM2_Y427_E428K], inactive: 0.576; in that of MIRSAYALGGL [CPS1_Y590], inactive: 0.537.
The same measure, in the same setting: next, LFQAKYQIRYR [CRLF1_Y272]: inactive: 1.34; NCLRVYVAGRF [CRB1_Y711_E710V]: inactive: 0.604; LNPDGYEKAFE [CPXM2_Y427_YF]: inactive: 0.938.
Same read-out and setting: next, FAKTQYPDVFA [CRX_Y63_YF]: inactive: 0.69; RRDRDYTNLPS [CSF1R_Y923_E920D]: inactive: 0.366; LENSTYQFICV [CRB1_Y760_R764C_YF]: inactive: 0.838.
On to MIHSAYALGGL [CPS1_Y590_R587H], for which the enrichment score is inactive: 0.882.

The target in the next test is SHP2 N-SH2 domain T52S. The description is as above. As to conditions: peptide library: pTyr-Var.
Regarding LQPNNCQFCGG [CSF1R_Y969_Y969C], the enrichment score is inactive: 0.753.
Still for that read-out and setting: next, LQPNNYQFCGG [CSF1R_Y969]: inactive: 0.681; LENSTYQFIHV [CRB1_Y760_R764H_YF]: inactive: 1.02.
On the same count and under the same terms, next, MIRSTYALGGL [CPS1_Y590_A589T]: inactive: 0.877; TLNHQYDYTFH [CSNK1A1_Y292_D297H]: inactive: 0.694; FAKTQYPDIYA [CRX_Y63_V66I]: inactive: 1.12.
The same measure, in the same setting: next, LENSTYQYIHV [CRB1_Y760_R764H]: inactive: 0.643.
With FSGKAYADEER [CRIM1_Y826], the enrichment score is inactive: 0.671.
Same read-out and setting: next, IEKLPYIDKWF [CPS1_Y872_T871P]: inactive: 1.07.
Turning to LNPDGYEKAYE [CPXM2_Y427], the enrichment score is inactive: 0.764.
The same measure, in the same setting: next, LNPDGYKKAYE [CPXM2_Y427_E428K]: inactive: 0.42.
The same measure, in the same setting: in the case of MIRSAYALGGL [CPS1_Y590] it was inactive: 0.593; in that of LFQAKYQIRYR [CRLF1_Y272], inactive: 1.46.
Same read-out and setting: next, NCLRVYVAGRF [CRB1_Y711_E710V]: inactive: 0.806; LNPDGYEKAFE [CPXM2_Y427_YF]: inactive: 0.757; FAKTQYPDVFA [CRX_Y63_YF]: inactive: 0.694.
For the molecule RRDRDYTNLPS [CSF1R_Y923_E920D], the enrichment score was inactive: 0.376.
Turning to LENSTYQFICV [CRB1_Y760_R764C_YF], the enrichment score is inactive: 0.829.
As to MIHSAYALGGL [CPS1_Y590_R587H], the enrichment score is inactive: 0.829.

The next test deals with SHP2 N-SH2 domain wild-type. The description is as above. To be noted: peptide library: pTyr-Var.
On to LQPNNCQFCGG [CSF1R_Y969_Y969C], for which the enrichment score is inactive: 0.861.
Still for that read-out and setting: next, LQPNNYQFCGG [CSF1R_Y969]: inactive: 0.902; LENSTYQFIHV [CRB1_Y760_R764H_YF]: inactive: 1.39.
In the case of MIRSTYALGGL [CPS1_Y590_A589T], the enrichment score is inactive: 0.83.
Take TLNHQYDYTFH [CSNK1A1_Y292_D297H]: the enrichment score was inactive: 0.781.
The same measure, in the same setting: in the case of FAKTQYPDIYA [CRX_Y63_V66I] it was inactive: 1.06.
For the molecule LENSTYQYIHV [CRB1_Y760_R764H], the enrichment score was inactive: 0.651.
The same measure, in the same setting: next, FSGKAYADEER [CRIM1_Y826]: inactive: 0.796.
IEKLPYIDKWF [CPS1_Y872_T871P]: the enrichment score is inactive: 1.09.
Take LNPDGYEKAYE [CPXM2_Y427]: the enrichment score is inactive: 0.736.
Regarding LNPDGYKKAYE [CPXM2_Y427_E428K], the enrichment score is inactive: 0.621.
As for MIRSAYALGGL [CPS1_Y590], the enrichment score was inactive: 0.624.
The same measure, in the same setting: in the case of LFQAKYQIRYR [CRLF1_Y272] it was inactive: 1.24; in that of NCLRVYVAGRF [CRB1_Y711_E710V], inactive: 0.504.
LNPDGYEKAFE [CPXM2_Y427_YF]: the enrichment score is inactive: 0.734.
The same measure, in the same setting: in the case of FAKTQYPDVFA [CRX_Y63_YF] it was inactive: 0.732; in that of RRDRDYTNLPS [CSF1R_Y923_E920D], inactive: 0.564.
On the same count and under the same terms, in the case of LENSTYQFICV [CRB1_Y760_R764C_YF] it was inactive: 1.17.
Same read-out and setting: in the case of MIHSAYALGGL [CPS1_Y590_R587H] it was inactive: 0.954.

Source of the values: the supplement of paper PMC10369915.
